# Test results published in patent US12103979B2, “N-acetylated and non-acetylated dipeptides containing arginine to reduce the viscosity of viscous compositions of therapeutic polypeptides” (AMGEN INC., priority 2017, dated 2024).
# B1: CGRPR: therapeutic antibody; IgG2, Lambda; LC SEQ ID NO 5, HC SEQ ID NO 6 (antibody, listed as Homo sapiens)
# heavy: MDMRVPAQLLGLLLLWLRGARC[about 100 residues omitted here]DRTGYSISWSSYYYYYGMDVWGQGTTVTVSSASTKGPSVFPLAPCSRSTSESTAALGCLVKDYFPEPVTVSWNSGALTSGVHTFPAVLQSSGLYSLSSVVTVPSSNFGTQTYTCNVDHKPSNTKVDKTVERKCCVECPPCPAPPVAGPSVFLFPPKPKDTLMISRTPEVTCVVVDVSHEDPEVQFNWYVDGVEVHNAKTKPREEQFNSTFRVVSVLTVVHQDWLNGKEYKCKVSNKGLPAPIEKTISKTKGQPREPQVYTLPPSREEMTKNQVSLTCLVKGFYPSDIAVEWESNGQPENNYKTTPPMLDSDGSFFLYSKLTVDKSRWQQGNVFSCSVMHEALHNHYTQKSLSLSPGK
# light: MAWALLLLTLLTQDTGSWAQSVLTQSPSASGTPGQRVTISCSGSSSNIGSNYVYWYQQLPGAAPKLLILRNNQRPSGVPDRFSGSKSGTSASLTISGLRSEDEADYYCAAWDDSLSGWVFGGGTKLTVLGQPKANPTVTLFPPSSEELQANKATLVCLISDFYPGAVTVAWKADGSPVKAGVETTKPSKQSNNKYAASSYLSLTPEQWKSHRSYSCQVTHEGSTVEKTVAPTECS
# Key:
# [1] = pI of therapeutic antibodies of Table 1; format: physicochemical
# [2] = Viscosity of therapeutic antibodies of Table 1 at exemplary concentration; format: physicochemical; conditions: at the Conc. (133.9-162.5 mg/ml)
molecule,measurement,setting,value
B1,pl,[1],8.6
same,Viscosity (cP),[2],6.3 cP
